The record followed here is the supplement of paper PMC9446081.

The campaign covered roughly 39,000 compounds. About 220 (0.56%) showed activity. The list shows a part of the results.
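Note: static incubation at 37 °C against the wild-type strain, values averaged over two biological replicates.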

In the test the test system is Escherichia coli K-12 BW25113. Nature of the test: relative growth (OD600 normalised to plate interquartile mean) (fraction); higher = less growth inhibition, active = 0.2 or less. The note with it: 50 µM; LB; incubation time: overnight (16-24 h).
Consider `C[C@H](CO)N1C[C@H](C)[C@H](CN(C)S(=O)(=O)c2cn(C)cn2)Oc2cc(C#Cc3cccc(F)c3)ccc2S1(=O)=O`, for which the relative growth was inactive: 1.04.

Take `C[C@@H]1CN([C@H](C)CO)C(=O)c2cc(NC(=O)Cc3cn(C)c4ccccc34)ccc2O[C@H]1CN(C)Cc1ccc(C(F)(F)F)cc1`: the relative growth was inactive: 1.01.

In the case of `CC(C)CC#Cc1ccc2c(c1)O[C@@H](CN(C)C(=O)Cc1ccncc1)[C@H](C)CN([C@@H](C)CO)S2(=O)=O`, the relative growth was inactive: 0.925.

Consider `C[C@H]1CN([C@@H](C)CO)C(=O)c2cccc(NC(=O)C3CC3)c2O[C@H]1CN(C)Cc1ccc(Oc2ccccc2)cc1`, for which the relative growth was inactive: 0.998.

With `C[C@H]1CN([C@@H](C)CO)C(=O)Cc2cc(NC(=O)c3ccncc3)ccc2O[C@@H]1CN(C)C(=O)Nc1ccc2c(c1)OCO2`, the relative growth is inactive: 0.98.

Regarding `C[C@H](CO)N1C[C@H](C)[C@@H](CN(C)S(=O)(=O)c2cn(C)cn2)OCCCC[C@H](C)Oc2ccc(NS(=O)(=O)c3ccccc3)cc2C1=O`, the relative growth is inactive: 1.

Take `COc1ccc(CN(C)C[C@H]2OCCCC[C@H](C)Oc3ccc(NC(=O)Nc4ccc(OC)cc4)cc3C(=O)N([C@@H](C)CO)C[C@@H]2C)cc1`: the relative growth is inactive: 0.982.

As to `C[C@H](CO)N1C[C@H](C)[C@@H](CN(C)S(C)(=O)=O)Oc2ccc(NC(=O)C3CCCCC3)cc2CC1=O`, the relative growth was inactive: 0.992.

As for `Cc1cccc(S(=O)(=O)N2C[C@@H](O)COC[C@@H]3O[C@@H](CC(=O)NCc4ccncn4)CC[C@H]32)c1`, the relative growth was inactive: 1.01.

For `COc1ccc(S(=O)(=O)Nc2cccc3c2O[C@H](CN(C)C(=O)NC(C)C)[C@H](C)CN([C@@H](C)CO)C3=O)cc1`, the relative growth was inactive: 0.982.

For the molecule `C[C@@H]1CN([C@H](C)CO)C(=O)c2cc(NC(=O)c3ccccc3)ccc2O[C@@H](C)CCCCO[C@H]1CN(C)C(=O)Cc1ccccc1`, the relative growth was inactive: 1.02.

Regarding `C[C@@H]1CCCCO[C@H](CN(C)C(=O)CCCN(C)C)[C@H](C)CN([C@@H](C)CO)C(=O)c2cc(NS(C)(=O)=O)ccc2O1`, the relative growth was inactive: 0.997.

In the case of `CCS(=O)(=O)NCC[C@@H]1CC[C@@H](NC(=O)C2CCOCC2)[C@H](CO)O1`, the relative growth was inactive: 0.982.

As to `Cc1ccc(S(=O)(=O)Nc2ccc3c(c2)C(=O)N([C@@H](C)CO)C[C@@H](C)[C@H](CN(C)S(=O)(=O)c2ccc(C)cc2)OCCCC[C@@H](C)O3)cc1`, the relative growth is inactive: 1.02.

Regarding `C[C@@H]1CN([C@H](C)CO)C(=O)c2cc(NS(C)(=O)=O)ccc2O[C@@H]1CN(C)S(=O)(=O)c1cn(C)cn1`, the relative growth is inactive: 0.991.

Take `CO[C@@H]1[C@@H](O[C@@H]2O[C@H](C)[C@@H](O[C@H]3C[C@@](C)(O)[C@@H](OC(=O)CC(C)C)[C@H](C)O3)[C@H](N(C)C)[C@H]2O)[C@@H](CC=O)C[C@@H](C)[C@@H](O)/C=C/C=C/CC(C)OC(=O)C[C@H]1OC(C)=O` (some centres undefined): the relative growth is inactive: 0.352.

Regarding `C[C@H]1CN([C@@H](C)CO)S(=O)(=O)c2ccc(C#CC3CC3)cc2O[C@H]1CN(C)C(=O)Cc1ccncc1`, the relative growth was inactive: 1.

With `O=C(C[C@@H]1C=C[C@H](NC(=O)c2ccc3c(c2)OCO3)[C@H](CO)O1)NCc1ccc(Oc2ccccc2)cc1`, the relative growth is inactive: 0.984.

With `CC(C)NC(=O)Nc1ccc2c(c1)C(=O)N([C@H](C)CO)C[C@@H](C)[C@@H](CN(C)C(=O)C1CCCCC1)OCCCC[C@H](C)O2`, the relative growth is inactive: 0.995.

Turning to `C[C@H](CO)N1C[C@H](C)[C@H](CN(C)S(C)(=O)=O)Oc2ccc(NC(=O)Nc3ccccc3)cc2C1=O`, the relative growth was inactive: 1.02.

With `COC(=O)[C@@]12CC[C@@H](C)[C@@H](C)[C@@H]1C1=CC[C@H]3[C@@]4(C)CC[C@@H](OC(C)=O)C(C)(C)[C@@H]4CC[C@@]3(C)[C@@]1(C)CC2`, the relative growth is inactive: 0.98.

Take `C[C@H]1CN([C@@H](C)CO)C(=O)Cc2cc(N(C)C)ccc2O[C@H]1CN(C)C(=O)Nc1ccc2c(c1)OCO2`: the relative growth is inactive: 0.999.

In the case of `C[C@H]1CN([C@@H](C)CO)C(=O)c2cccc(NC(=O)CCCCCC(=O)Nc3ccccc3N)c2O[C@@H]1CN(C)S(C)(=O)=O`, the relative growth was inactive: 1.03.

Regarding `C[C@@H]1CN([C@H](C)CO)C(=O)Cc2cc(NC(=O)Nc3ccc(C(F)(F)F)cc3)ccc2O[C@H]1CN(C)S(C)(=O)=O`, the relative growth is inactive: 0.971.

Take `Cc1ccc(S(=O)(=O)N(C)C[C@H]2Oc3ccc(NS(=O)(=O)c4cccs4)cc3CC(=O)N([C@H](C)CO)C[C@@H]2C)cc1`: the relative growth was inactive: 0.999.

In the case of `Cc1ccc(S(=O)(=O)N(C)C[C@H]2Oc3ccc(NC(=O)c4ccncc4)cc3CC(=O)N([C@@H](C)CO)C[C@H]2C)cc1`, the relative growth was inactive: 1.

Consider `C[C@H](CO)N1C[C@H](C)[C@@H](CN(C)S(=O)(=O)c2cccs2)Oc2ccc(NS(=O)(=O)c3cn(C)cn3)cc2C1=O`, for which the relative growth is inactive: 0.994.

In the case of `O=C1O[C@H](c2ccccc2)[C@H](c2ccccc2)N2[C@H]1[C@@H](C(=O)Nc1nc3ccccc3s1)[C@]1(C(=O)Nc3ccc(C#CCCO)cc31)[C@H]2c1ccc(OCCO)cc1`, the relative growth is inactive: 1.07.

Turning to `Cn1c(=O)c2c(nc(NCCO)n2C)n(C)c1=O`, the relative growth was inactive: 0.906.

For `C[C@@H]1CN([C@@H](C)CO)C(=O)Cc2cc(NC(=O)Nc3ccc(C(F)(F)F)cc3)ccc2O[C@H]1CN(C)CC1CCCCC1`, the relative growth is inactive: 1.01.

For the molecule `C[C@@H]1CCCCO[C@H](CN(C)C(=O)Nc2ccccc2)[C@@H](C)CN([C@H](C)CO)C(=O)c2cc(NS(=O)(=O)c3ccc(Cl)cc3)ccc2O1`, the relative growth is inactive: 1.02.

With `COCCOC(=O)N1C(=O)[C@@]2(c3cc(C#CC4(O)CCCCCC4)ccc31)[C@H](C(=O)N1CCN(c3ncccn3)CC1)[C@H]1C(=O)O[C@H](c3ccccc3)[C@H](c3ccccc3)N1[C@@H]2c1ccc(OCCO)cc1`, the relative growth is inactive: 1.03.

Turning to `COc1ccc(NC(=O)N(C)C[C@@H]2Oc3c(NC(=O)CCCCCC(=O)Nc4ccccc4N)cccc3C(=O)N([C@@H](C)CO)C[C@H]2C)cc1`, the relative growth was inactive: 1.01.

Take `C[C@@H]1CN([C@@H](C)CO)C(=O)c2cc(NC(=O)CCC(F)(F)F)ccc2O[C@@H](C)CCCCO[C@@H]1CN(C)Cc1ccc(C(=O)O)cc1`: the relative growth was inactive: 1.03.
